Results on 80 molecules are retold here after the supplement of paper PMC10986608.

Where “and” joins values, the source holds several entries; their conditions need not be identical. Equal entries are not always repeated. The list shows a part of the results. Most values come without repeats; read them as rough.

The subject of the assay is Candida albicans DPL-15. As to the kind of experiment: growth (OD600) after compound treatment (apparently relative to screen median) (relative growth (fraction; screen median 1.02)); DPL-15 is a caspofungin-resistant clinical isolate; higher = more fungal growth (less antifungal activity). The conditions noted are these: 25 µM; RPMI 1640; 48 h; 30 °C.
As for `COC(=O)C/C=C/[C@H](C)[C@@H](NC(=O)[C@@H](NC(=O)OC(C)(C)C)C(C)C)c1ccccc1`, the growth came out at 1.15. Turning to `COC(=O)c1cc2c(c3c4cc(F)ccc4n(S(=O)(=O)c4ccccc4)c13)C(=O)N(Cc1ccc(C)cc1)C2`, the growth worked out at 0.965. As to `CO[C@H](C(F)(F)F)[C@]12c3ccccc3[C@H](c3ccccc31)[C@@H]1C(=O)N(CCc3cc4ccccc4o3)C(=O)[C@@H]12`, the growth worked out at 0.97.

As to `CC12CC/C(=C/c3cccc(n3)C(=O)NCC3(CCCCC3)CC(=O)NC1)C2` (stereo not given), the growth came to 1.34.

Regarding `CC(=O)N1C(=O)NC(C)=C(C#N)C1c1ccccc1` (stereo not given), the growth turned out to be 1.15.

For `COc1cc(O)c2c(=O)c3c(CC=C(C)C)cc(O)c(O)c3oc2c1`, the growth worked out at 0.267. Under `COC(=O)c1cc2c(c3c4ccccc4n(S(=O)(=O)c4ccccc4)c13)C(=O)N(Cc1ccc(C)cc1)C2` stands 0.917; under `COC(=O)C1=C(C)N(Cc2ccccc2)C(=S)NC1c1ccc(-c2ccccc2)cc1` (stereo not given), 0.913; under `Cc1ccc(CN2C(=O)c3[nH]nc(CC(C)C)c3C2c2ccc(F)cc2)o1` (stereo not given), 0.974.

Consider `COc1cc(O)c2c(OC)c3c(=O)cc(C)oc3cc2c1OC`, for which the growth is 1.16. With `CC(C)CC1=NCC(C)(C)NC2=C1C(c1ccccc1)NC2=O` (stereo not given), the growth was determined as 0.912. For `CC#CCN1c2ccccc2[C@]23C[C@@H](C(=O)OC)N(S(=O)(=O)c4ccc(Br)cc4)C2=NC(C(=O)OC)=C(C(=O)OC)[C@H]13`, the growth was found to be 0.901.

As for `C[C@@H]1/C=C\CC(=O)OCCCC(=O)N[C@@H]1c1cccc(Br)c1`, the growth is 1.22.

With `COc1ccc(N2C(=O)C3=C(C(CC(C)C)=NCC(C)(C)N3)C2c2ccc(C)cc2)cc1` (stereo not given), the growth amounted to 1.06.

For `CCCN1C(=S)NC(c2ccc(OC)cc2)C(C(C)=O)=C1C` (stereo not given), the growth is 0.934. Under `COc1ccc2c(c1-c1c3c(cc(Br)c1OC)CCCC3)CCCC2` stands 1.15; under `CC1=C(I)[C@@]2(CCCO)c3cc4c(cc3CC[C@H]2[C@@H]1C)OCO4`, 0.812; under `CC(C)C1=NCCNC2=C1C(c1ccc3c(c1)OCO3)N(c1ccccc1)C2=O` (stereo not given), 0.962.

`CC(=O)C1=C(C)N(Cc2ccccc2)C(=O)N[C@H]1c1cccc(C(F)(F)F)c1`: the growth was 0.918. The same measure for `COc1ccc(OC)c2c(O)c(Br)cc(Br)c12`: 1.01; for `C#CCOC[C@@H](NC(=O)[C@@H]1C[C@@H](O)CN1C(=O)c1cccc2cnnn12)c1ccccc1`: 1.14. Under `CC(=O)C1=C2C=C(C)CCN2C(=O)NC1c1ccccc1` (stereo not given) stands 0.954; under `CCc1ccccc1-n1nc2c(c1C(C)C)C(c1ccc3c(c1)OCO3)NC2=O` (stereo not given), 0.956. As to `COc1ccc(C2NC(=S)N(C)C(C)=C2C(C)=O)cc1` (stereo not given), the growth stood at 0.993. With `COc1cccc2c1C1(Cc3occc(=O)c3OS(C)(=O)=O)CCCCC1=N2` (stereo not given), the growth is 1.14. Under `CC(=O)c1ccc(OCc2ccccc2)cc1OCC=C(C)C` stands 0.786. The same measure for `CCCC(CC(C)C)OS(=O)(=O)NC(C)(C)C` (stereo not given): 1.06; for `CCOC(=O)c1cc2nc(/N=C(\C)N(C)C)nc(O)c2nc1C(=O)OCC`: 1.12.

For the molecule `CC(C)C1=NCCNC2=C1C(c1ccccc1)N(Cc1ccccc1)C2=O` (stereo not given), the growth worked out at 1.03.

As for `COc1ccccc1Cn1nc(CC(C)C)c2c1C(=O)NC2c1cccc(C(F)(F)F)c1` (stereo not given), the growth stood at 1.01. For the molecule `C=CCC1=C(OC)C(CC=C)(CCC(=C)C)C(=O)C(C(=O)c2ccccc2)=C1O` (stereo not given), the growth turned out to be 0.745. Under `COC(=O)C1=C(C)N(Cc2ccc(F)cc2)C(=S)NC1c1ccccc1F` (stereo not given) stands 1.01; under `CO[C@@H]1[C@H](O)CC[C@]2(O)CN(c3ccc4[nH]ccc4c3)[C@@H](CC=C(C)C)[C@](C)(O)[C@@H]12`, 0.922; under `COc1ccc(N2C(=O)C3=C(C(C(C)C)=NCCN3C)C2c2ccc(F)cc2)cc1` (stereo not given), 0.984. Under `CC(C)[C@@H]1CC[C@@H](C)C[C@@H]1NS(=O)(=O)NC(C)(C)C` stands 1.16.

As for `CCCc1c(Cl)c2c(OC)cc(-c3c(OC)cc(O)c(C(=O)c4ccccc4)c3O)c(O)c2c(=O)n1C`, the growth was 1.11. `COc1ccc(N2C(=O)c3[nH]nc(CC(C)C)c3C2c2cccc(C(F)(F)F)c2)c(OC)c1` (stereo not given): the growth was found to be 1. With `COc1ccc(CN2CCc3nc(-c4ccc(OC)cc4)c4c(c3C2)CO[C@@H](C)C4)cc1`, the growth came to 0.998. The same measure for `COC(=O)C1=C(C)N(C)C(NCc2cccc(C(F)(F)F)c2)=NC1c1ccccc1C(F)(F)F` (stereo not given): 0.962. The same measure for `COC[C@@H](OC)[C@]12c3ccccc3[C@H](c3ccccc31)[C@H]1[C@@H]2C(=O)N2CCCC[C@]12C`: 1.25; for `CN1CCN=C(c2ccccc2)C2=C1C(=O)N(c1ccccc1)C2c1ccccc1` (stereo not given): 0.942; for `COC(=O)[C@]1([C@H]2CCC(=O)O2)CC(=O)c2c(O)ccc(Cl)c2O1`: 1.05. Under `CCN1C(=S)NC(c2cccc(F)c2)C(C(=O)OC)=C1C` (stereo not given) stands 1.3. Turning to `CC(C)Cc1n[nH]c2c1C(c1cccc(C(F)(F)F)c1)N(Cc1ccccc1)C2=O` (stereo not given), the growth was found to be 0.946.

As to `COc1ccc(N2C(=O)C3=C(C(CC(C)C)=NCCN3)C2c2ccc(C)cc2)cc1` (stereo not given), the growth was found to be 0.896.

In the case of `Cc1cc2c(nc1C)CCCN2S(=O)(=O)c1ccc(C#N)cc1`, the growth was found to be 0.944.

Regarding `COc1ccc(C(=O)Cn2nc(-c3ccc(F)cc3)cc2N)cc1`, the growth turned out to be 1.06.

With `CC(C)Cc1n[nH]c2c1C(c1ccccc1)NC2=O` (stereo not given), the growth turned out to be 1.17. Under `C=CCOC(=O)N[C@@H](C1CC1)[C@@H](C)/C=C/CC(=O)OC` stands 1.11.

For the molecule `CC1=C2CC[C@]3(C)[C@H](CC[C@@H]4[C@H]5[C@H](C(C)C)CC[C@]5(C(=O)O)CC[C@]43C)[C@@]2(C)CCC1=O`, the growth was determined as 1.01. `COc1cc(CO[C@H]2CC=C(c3ccccc3)O[C@@H]2CO)cc(OC)c1`: the growth was 0.993 and 0.9.

For `COC(=O)c1[nH]c2ccccc2c1[C@]12CCN(C(=O)C3CC3)[C@H]1Nc1ccccc12`, the growth turned out to be 1.08. Under `COC(=O)c1c(O)ccc(O)c1-c1c(O[Si](C(C)C)(C(C)C)C(C)C)cc(O)cc1O[Si](C(C)C)(C(C)C)C(C)C` stands 0.925.

With `COc1ccc(N2C(=O)c3c(c(C)nn3C)C2c2ccc3c(c2)OCO3)cc1` (stereo not given), the growth turned out to be 0.871. The same measure for `COc1ccc(N2C(=O)c3[nH]nc(CC(C)C)c3C2c2ccccc2Cl)c(OC)c1` (stereo not given): 0.982. The same measure for `COc1cc(I)c(CCN2C(=O)[C@H]3[C@H]4c5ccccc5[C@]([C@H](OC)C(F)(F)F)(c5ccccc54)[C@H]3C2=O)cc1OC`: 1.04; for `C=CCN1C(=O)C2=C(C(CC(C)C)=NCCN2C)C1c1ccc(F)cc1` (stereo not given): 1.13; for `CCCCS(=O)(=O)N1CCCc2nc(-c3ccc(F)cc3)ccc21`: 0.958.

Consider `CC(C)c1cc(Nc2cc(O)cc(O)c2C(=O)N2Cc3ccccc3C2)n(C)n1`, for which the growth was found to be 1.02. For `O=c1c(OCC#Cc2ccccc2)c(-c2ccccc2)oc2ccccc12`, the growth stood at 1.09. Turning to `O=C1NC(c2ccccc2)c2c(-c3ccccc3)nn(-c3ccc(OC(F)(F)F)cc3)c21` (stereo not given), the growth was determined as 0.873. For the molecule `COC(=O)[C@]1([C@@H]2CCC(=O)O2)CC(=O)c2c(OC)cc(C)c(B3OC(C)(C)C(C)(C)O3)c2O1`, the growth was found to be 0.976. The same measure for `COC(=O)c1cc(O)c(Cl)c(O)c1`: 0.979; for `COc1ccc(N2C(=O)C3=C(C(C)=NCCN3)C2c2ccc(C)cc2)cc1` (stereo not given): 0.923; for `CN1CCN=C(c2ccccc2)C2=C1C(=O)NC2c1ccc(Br)cc1` (stereo not given): 0.923. On to `CCOC(=O)/C(C)=N/NC(C)=O`, for which the growth is 0.918. The same measure for `COC(=O)[C@@]12Oc3ccc(-c4ccnn4C)c(O)c3C(=O)C1=C(N)C[C@H](C)[C@H]2O`: 1.2. The same measure for `COC(=O)c1cc2c(c3c4cc(OC)ccc4n(S(=O)(=O)c4ccc(F)cc4)c13)C(=O)N(Cc1ccccc1)C2`: 0.927; for `COC(=O)C(C(=O)OC)N(C)Cc1ccccc1`: 0.881; for `N#Cc1ccc(C(=O)COC(=O)c2c(N)cccc2F)cc1`: 1. Under `COc1ccc(C[C@H]2COC[C@@H]2Cc2ccc3c(c2)OCO3)cc1OC` stands 1.03; under `COC(=O)[C@@H]1C[C@@]2(Cc3occc(=O)c3O)c3ccccc3N[C@H]2N1C(=O)C(F)(F)F`, 1.07. Regarding `Cc1nn(C)c2c1C(c1ccccc1)N(c1ccccc1)C2=O` (stereo not given), the growth amounted to 1.04. The same measure for `CS(=O)(=O)Oc1c(C[C@]23CCCCC2=Nc2ccccc23)occc1=O`: 1.06. On to `C#CCC(C)(C)CNC(=O)CC1(CNC(=O)c2cc(CS(=O)(=O)c3ccc(C)cc3)ccc2O)CCCCC1`, for which the growth came to 1.23. Under `COC(=O)[C@@]12Oc3ccc(-c4ccc(N)cc4)c(O)c3C(=O)C1=C(N)C[C@H](C)[C@H]2O` stands 1.16; under `C[C@H]1Cc2cc3c(cc2[C@@]2(O1)C(=O)Nc1ccccc12)OCO3`, 0.971; under `C=CCO[C@]12OC[C@@H]3C[C@@]1(C)C(=O)C(C)=C[C@@H]32`, 0.971.

On to `COc1ccc([C@@]23Oc4cc(OC)cc(OC)c4[C@@](O)(C2=O)[C@H](C(=O)N(C)OC)[C@H]3c2ccccc2)cc1`, for which the growth stood at 0.975.

For `COc1ccc(N2C(=O)c3[nH]nc(CC(C)C)c3C2c2cc(C(F)(F)F)ccc2C(F)(F)F)cc1` (stereo not given), the growth was 0.972.
